{"source": "paper PMC4336329", "about": "(PLoS ONE, 2015)", "note": "Among all 310,000 compounds or so, about 14,000 (4.5%) showed an effect of 50% or more. Effects have a minus sign here. Some of the results follow.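 Also: peak tail current of the secondary pulse compared with the same well before compound.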", "data": [{"molecular_target": "human ether-à-go-go-related gene (hERG) potassium channel (human, UniProt Q12809)", "sequence (Q12809 whole entry, looked up)": "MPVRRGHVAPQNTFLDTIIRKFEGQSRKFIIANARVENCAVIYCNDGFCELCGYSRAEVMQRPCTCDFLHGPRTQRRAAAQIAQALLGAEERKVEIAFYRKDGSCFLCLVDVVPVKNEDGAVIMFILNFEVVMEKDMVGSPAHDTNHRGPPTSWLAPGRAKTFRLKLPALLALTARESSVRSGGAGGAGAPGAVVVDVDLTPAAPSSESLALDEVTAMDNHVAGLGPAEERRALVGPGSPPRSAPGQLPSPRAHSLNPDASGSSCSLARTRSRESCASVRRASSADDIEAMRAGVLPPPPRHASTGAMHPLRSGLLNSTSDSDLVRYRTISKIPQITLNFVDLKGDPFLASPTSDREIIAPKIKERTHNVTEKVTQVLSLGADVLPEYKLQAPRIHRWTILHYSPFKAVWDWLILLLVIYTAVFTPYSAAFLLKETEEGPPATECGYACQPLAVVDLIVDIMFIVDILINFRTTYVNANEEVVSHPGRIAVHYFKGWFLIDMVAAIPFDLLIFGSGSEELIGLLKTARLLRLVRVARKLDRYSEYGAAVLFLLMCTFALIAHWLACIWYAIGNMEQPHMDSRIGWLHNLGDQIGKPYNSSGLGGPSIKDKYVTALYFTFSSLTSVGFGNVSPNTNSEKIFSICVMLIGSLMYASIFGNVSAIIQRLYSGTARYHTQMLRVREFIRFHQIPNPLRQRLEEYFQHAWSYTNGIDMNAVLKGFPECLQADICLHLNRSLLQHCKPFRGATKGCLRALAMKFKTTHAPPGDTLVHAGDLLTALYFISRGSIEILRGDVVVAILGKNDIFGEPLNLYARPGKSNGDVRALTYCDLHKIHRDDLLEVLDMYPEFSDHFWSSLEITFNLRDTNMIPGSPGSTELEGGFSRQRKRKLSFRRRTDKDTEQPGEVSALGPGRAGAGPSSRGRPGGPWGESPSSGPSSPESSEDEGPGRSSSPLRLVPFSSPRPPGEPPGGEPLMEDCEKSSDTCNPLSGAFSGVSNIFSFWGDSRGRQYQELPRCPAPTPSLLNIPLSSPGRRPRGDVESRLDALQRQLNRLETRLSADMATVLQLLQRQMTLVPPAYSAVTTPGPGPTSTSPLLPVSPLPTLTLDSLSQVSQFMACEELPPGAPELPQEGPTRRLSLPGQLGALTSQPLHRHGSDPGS", "test": "primary screen, population patch clamp on CHO cells stably expressing hERG", "units": {"hERG current change (%, negative = inhibition) at 10uM": "%"}, "values": [{"smiles": "CC(C)n1ncc2c(C(=O)NCc3ccccc3CN(C)C)cc(C3CC3)nc21", "hERG current change (%, negative = inhibition) at 10uM": -21.5}, {"smiles": "Cc1cc(C)nc(Sc2c(C)n[nH]c2C)n1", "hERG current change (%, negative = inhibition) at 10uM": 4.59}, {"smiles": "CC1(C)CC(=O)C(Sc2ccccc2C(=O)O)=C(O)C1", "hERG current change (%, negative = inhibition) at 10uM": 17}, {"smiles": "CC1CCCCC1NC(=O)CSc1nnc(CC(=O)Nc2ccccc2F)n1C", "note": "(stereo not drawn)", "hERG current change (%, negative = inhibition) at 10uM": 15.4}, {"smiles": "COc1ccccc1NS(=O)(=O)c1ccc(Cl)c(NC(=O)C(C)N2C(=O)c3ccccc3C2=O)c1", "note": "(stereo not drawn)", "hERG current change (%, negative = inhibition) at 10uM": -28.3}, {"smiles": "C/C(=N\\N=C\\c1ccccc1F)c1nnn(-c2nonc2N)c1C", "hERG current change (%, negative = inhibition) at 10uM": -10.9}, {"smiles": "CC(C)NC(=O)c1ccc2c(c1)N(CC(=O)N1CCOCC1)C(=O)C(C)(C)O2", "hERG current change (%, negative = inhibition) at 10uM": -7.88}, {"smiles": "CC1CCCC(NC(=O)COC(=O)c2cccnc2Cl)C1C", "note": "(stereo not drawn)", "hERG current change (%, negative = inhibition) at 10uM": -2.95}, {"smiles": "Cn1c(-c2nnn(-c3ccc(F)cc3)n2)cc2ccccc21", "hERG current change (%, negative = inhibition) at 10uM": 22.4}, {"smiles": "COc1ccc(CCNCC(O)COc2cccc(Br)c2)cc1", "note": "(stereo not drawn)", "hERG current change (%, negative = inhibition) at 10uM": -50}, {"smiles": "O=C(c1ccc2ccccc2c1)c1c[nH]cc1-c1ccccc1", "hERG current change (%, negative = inhibition) at 10uM": 11.2}, {"smiles": "CCCCCCN(C(=O)CCCCCN1C(=O)NC(c2ccc(-c3ccccc3)cc2)C(C(=O)OCc2ccccc2)=C1C)C(C)C(=O)NCCCC", "note": "(stereo not drawn)", "hERG current change (%, negative = inhibition) at 10uM": 15.1}, {"smiles": "O=C(CSCc1ccccc1)Nc1ccc2c(c1)OCO2", "hERG current change (%, negative = inhibition) at 10uM": 7.4}, {"smiles": "Cc1ccc(/C=N/n2c(-c3ccccc3)n[nH]c2=S)cc1", "hERG current change (%, negative = inhibition) at 10uM": 13.7}, {"smiles": "CCOc1cc(NC(=S)NCCCN(C)C)c(OCC)cc1NC(=O)c1cccs1", "hERG current change (%, negative = inhibition) at 10uM": -39.2}, {"smiles": "Cc1ccnc(NC(=O)CSc2ccc3c(c2)OCCO3)c1", "hERG current change (%, negative = inhibition) at 10uM": -4.94}, {"smiles": "O=C(O)c1ccc2c(c1)N(Cc1cccc(F)c1)C(=O)CS2", "hERG current change (%, negative = inhibition) at 10uM": -8.7}, {"smiles": "CC1(C)C2CCC1(C)C(OC(=O)c1ccccc1C(=O)O)C2", "note": "(stereo not drawn)", "hERG current change (%, negative = inhibition) at 10uM": 17.1}, {"smiles": "CN(C)/C=N/c1cc(=O)[nH]c(=O)n1Cc1ccccc1", "hERG current change (%, negative = inhibition) at 10uM": -0.304}, {"smiles": "COc1cccc(C(=O)n2ccc(-c3cccs3)n2)c1", "hERG current change (%, negative = inhibition) at 10uM": 4.32}, {"smiles": "COc1ccc(S(=O)(=O)Cc2ccc(C(=O)NC(C)C)o2)cc1", "hERG current change (%, negative = inhibition) at 10uM": 12.3}, {"smiles": "Cc1cccc(N2C(=O)C(O)=C(C(=O)c3cccs3)C2c2ccccc2)n1", "note": "(stereo not drawn)", "hERG current change (%, negative = inhibition) at 10uM": 5.43}, {"smiles": "CCOC(=O)C1(Cc2ccc(Cl)cc2)CCN(C(=O)c2cscn2)CC1", "hERG current change (%, negative = inhibition) at 10uM": -37.4}, {"smiles": "O=C(O)c1ccc(CNCc2ccc(Cl)cc2)cc1", "hERG current change (%, negative = inhibition) at 10uM": 1.06}, {"smiles": "CN(C)c1ccc(P(=O)(Nc2ccccc2)N2CCOCC2)c(NC(=O)c2cccs2)c1", "note": "(stereo not drawn)", "hERG current change (%, negative = inhibition) at 10uM": 10.7}, {"smiles": "Cc1ccc(Sc2ccc(C(=O)N3CCOCC3)cc2[N+](=O)[O-])cc1", "hERG current change (%, negative = inhibition) at 10uM": -32.3}, {"smiles": "CC(NC(=O)NCCCC(=O)O)(C(F)(F)F)C(F)(F)F", "hERG current change (%, negative = inhibition) at 10uM": 11.3}, {"smiles": "Cc1cc2oc(=O)cc(CN3CCOCC3)c2cc1C(C)C", "hERG current change (%, negative = inhibition) at 10uM": -19.7}, {"smiles": "Cc1cc(C)cc(C(=O)Nc2nnc(SCC(=O)N3CCCc4ccccc43)s2)c1", "hERG current change (%, negative = inhibition) at 10uM": -0.589}, {"smiles": "COc1ccc(C(=O)N2CCCC(CNC(=O)c3ccc(F)cc3)C2)cc1OC", "note": "(stereo not drawn)", "hERG current change (%, negative = inhibition) at 10uM": 3.14}, {"smiles": "COCCN(CC(=O)Nc1ccccc1C(F)(F)F)C(=O)/C=C/c1cc(Cl)c2c(c1)OCO2", "hERG current change (%, negative = inhibition) at 10uM": -17.9}, {"smiles": "O=C(Nc1ccon1)c1sc2cc(F)ccc2c1Cl", "hERG current change (%, negative = inhibition) at 10uM": 8.23}, {"smiles": "CC(=O)NC1CC2CCCC(C1)N2CC(=O)N1CCCc2ccccc21", "note": "(stereo not drawn)", "hERG current change (%, negative = inhibition) at 10uM": -7.15}, {"smiles": "Cc1cccc(NC(=O)Cn2cc(C(=O)c3ccco3)c3ccccc32)c1", "hERG current change (%, negative = inhibition) at 10uM": -6.56}, {"smiles": "O=C(Nc1ccccc1OCc1ccccc1)c1ccccc1Br", "hERG current change (%, negative = inhibition) at 10uM": 16}, {"smiles": "O=C(CN1C(=O)C2CC=CCC2C1=O)N1CCN(c2ccc([N+](=O)[O-])cc2)CC1", "note": "(stereo not drawn)", "hERG current change (%, negative = inhibition) at 10uM": -71.6}, {"smiles": "CCCCCCN1CC(=O)N2Cc3[nH]c4ccccc4c3C[C@H]2C1=O", "hERG current change (%, negative = inhibition) at 10uM": -9.11}, {"smiles": "CCCN1CNC(=S)N(c2ccc(C(=O)OCC)cc2)C1", "hERG current change (%, negative = inhibition) at 10uM": 13.6}, {"smiles": "O=C1OC(N2C(=O)CC[C@H]2C(=O)NCC2CCCO2)c2ccccc21", "note": "(stereo partly drawn)", "hERG current change (%, negative = inhibition) at 10uM": 15.7}, {"smiles": "O=C(NC1=NCCS1)c1cccc(S(=O)(=O)N2CCc3ccccc32)c1", "hERG current change (%, negative = inhibition) at 10uM": 17.4}, {"smiles": "FC(F)Oc1ccc(NC(=S)NCC2COc3ccccc3O2)cc1", "note": "(stereo not drawn)", "hERG current change (%, negative = inhibition) at 10uM": -5.83}, {"smiles": "CC(=O)n1cc(Nc2ccc([N+](=O)[O-])cc2)c2ccccc21", "hERG current change (%, negative = inhibition) at 10uM": -0.324}, {"smiles": "CCCN(CCC)C1=CC(=[N+]2CCCC2)CC(C)(C)C1.[I-]", "hERG current change (%, negative = inhibition) at 10uM": -72.4}, {"smiles": "COc1ccc(-n2c3c(cc(C(=O)N4CCCCC4)c2=O)C(=O)CC(C)(C)C3)cc1", "hERG current change (%, negative = inhibition) at 10uM": 17.4}, {"smiles": "O=C(N/C(=C\\c1ccc([N+](=O)[O-])cc1)C(=O)N1CCCCC1)c1ccco1", "hERG current change (%, negative = inhibition) at 10uM": -70.3}, {"smiles": "Cc1cc(C)c2nc(NC(=O)c3ccc(OCC4CCCO4)cc3)sc2c1", "note": "(stereo not drawn)", "hERG current change (%, negative = inhibition) at 10uM": -6.31}, {"smiles": "c1ccc2oc(-c3csc(NCC4CCCO4)n3)cc2c1", "note": "(stereo not drawn)", "hERG current change (%, negative = inhibition) at 10uM": -9.3}, {"smiles": "CCC(C)N(C(=O)CSc1nnnn1-c1ccccc1OC)C1CCS(=O)(=O)C1", "note": "(stereo not drawn)", "hERG current change (%, negative = inhibition) at 10uM": -37.2}, {"smiles": "CC1(c2ccc(C#N)cc2)NC(=O)N(CC(=O)Nc2cc(S(=O)(=O)N3CCOCC3)ccc2Cl)C1=O", "note": "(stereo not drawn)", "hERG current change (%, negative = inhibition) at 10uM": 9.01}, {"smiles": "CCCCN(CCCC)CC(O)COc1ccc(Br)cc1", "note": "(stereo not drawn)", "hERG current change (%, negative = inhibition) at 10uM": -74.4}, {"smiles": "Cc1cc(NS(=O)(=O)Cc2ccccc2)no1", "hERG current change (%, negative = inhibition) at 10uM": 0.859}, {"smiles": "CCc1cc(CNC(=O)C2CCC(=O)N(Cc3ccc(Cl)cc3)C2)on1", "note": "(stereo not drawn)", "hERG current change (%, negative = inhibition) at 10uM": -43.6}, {"smiles": "COc1ccc(C(=O)N2CCCc3ccccc32)cc1", "hERG current change (%, negative = inhibition) at 10uM": 4.42}, {"smiles": "CN(C)C(=O)CCN1CCOCC1", "hERG current change (%, negative = inhibition) at 10uM": 14.7}, {"smiles": "CCS(=O)(=O)c1ccc2oc(SCC(=O)N3c4ccccc4CC3C)nc2c1", "note": "(stereo not drawn)", "hERG current change (%, negative = inhibition) at 10uM": -13.7}, {"smiles": "CCCCOc1ccc(C2C(C(=O)c3ccc(C)o3)=C(O)C(=O)N2Cc2ccco2)cc1", "note": "(stereo not drawn)", "hERG current change (%, negative = inhibition) at 10uM": 12.4}, {"smiles": "CCOc1ccccc1NC(=O)c1cccc(N2C(=O)CCC2=O)c1", "hERG current change (%, negative = inhibition) at 10uM": 6.06}]}]}
